# Assay results as given in PMC6919601, “Identification of Plasmodium dipeptidyl aminopeptidase allosteric inhibitors by high throughput screening” (PLoS ONE, 2019).
# Among all 110,000 compounds or so, about 230 (0.21%) showed an effect of 50% or more. The list shows a part of the results.
# Biological target: DPAP1 (Plasmodium falciparum, UniProt Q8IIJ9)
# Assay: primary screen, percent inhibition; read by cleavage of a fluorogenic dipeptide substrate; higher = more effect of the substance
# Design: species or system P. falciparum D10 trophozoite lysates; single well
# 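Also: 30 min substrate incubation versus DMSO and 10 µM JCP410 controls.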
# Sequence of DPAP1 (Q8IIJ9 whole entry, looked up): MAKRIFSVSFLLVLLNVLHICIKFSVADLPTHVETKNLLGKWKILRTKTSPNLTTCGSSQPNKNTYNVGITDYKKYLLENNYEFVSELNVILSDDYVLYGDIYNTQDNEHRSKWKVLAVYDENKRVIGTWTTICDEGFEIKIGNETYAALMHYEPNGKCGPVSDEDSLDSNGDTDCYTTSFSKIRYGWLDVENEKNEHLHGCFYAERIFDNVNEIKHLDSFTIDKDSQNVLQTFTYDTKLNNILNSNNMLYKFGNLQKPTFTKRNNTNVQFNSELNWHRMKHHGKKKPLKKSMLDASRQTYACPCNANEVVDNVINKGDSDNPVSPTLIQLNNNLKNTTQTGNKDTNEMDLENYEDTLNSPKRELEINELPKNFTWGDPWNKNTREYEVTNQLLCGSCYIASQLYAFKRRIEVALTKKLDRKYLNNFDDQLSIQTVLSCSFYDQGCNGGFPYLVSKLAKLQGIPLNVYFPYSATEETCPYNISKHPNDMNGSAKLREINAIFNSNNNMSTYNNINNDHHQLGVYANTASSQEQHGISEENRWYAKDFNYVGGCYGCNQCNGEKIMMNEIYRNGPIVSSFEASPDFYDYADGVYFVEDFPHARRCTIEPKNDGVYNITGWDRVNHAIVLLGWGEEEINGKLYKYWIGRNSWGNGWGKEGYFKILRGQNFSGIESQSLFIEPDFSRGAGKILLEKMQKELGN
row,Structure (SMILES),% Inhibition @ 10 uM
1,CC(C)(C)C1CCc2c(sc3nnn(CC(=O)c4cccs4)c(=O)c23)C1 (centres unmarked),2.41%
2,NC(=O)CSc1ccc(-c2cccs2)nn1,-2.26%
3,COc1cc(NS(=O)(=O)c2ccc(NC(=O)c3ccc(Br)o3)cc2)nc(OC)n1,9.05%
4,CC(C)(CNS(=O)(=O)c1ccc(Cl)cc1)CNS(=O)(=O)c1ccc(Cl)cc1,0.331%
5,O=C(O)c1ccccc1-c1ncc(-c2ccccc2)o1,-4.06%
6,COc1ccc(S(=O)(=O)n2nc(-c3ccc(C)cc3)cc2N)cc1OC,-2.19%
7,CC(C)Oc1ccc(Br)cc1/C=C1\SC(N)=NC1=O,-9.93%
8,O=C(O)c1cc(O)ccc1NC(=O)c1cccc2ccccc12,19.2%
9,O=C(Cn1ncn2cccc2c1=O)N1CCCC1,-4.93%
10,CCOC(=O)c1ccc(CS(=O)(=O)c2ccc(Cl)cc2)o1,-0.657%
11,COc1ccccc1-c1cc(C(=O)NC2CCCC2)no1,-2.65%
12,CC1=NN(C(=O)c2ccccc2Cl)C(O)(c2cccnc2)C1 (centres unmarked),5.39%
13,CC(C)Cc1ccc2c(N)c(C(=O)O)sc2n1,15.8%
14,N#Cc1cc2c(nc1SCC(=O)NCCc1ccccc1)CCC2,-3.16%
15,CC(C)(C)c1ccccc1OCCCCN1CCCCC1,-2.12%
16,CCCN1CCC(N2CCN(c3ccccc3F)CC2)CC1,1.29%
17,CCOC(=O)c1c(C)n(C)c2cc(Br)c(C(=O)OC)cc12,5.77%
18,COc1ccc(C2=NN(CCC(=O)N3CCCCC3)C(=O)CC2)cc1,-8.34%
19,CC1=C(C(=O)Nc2ccccc2F)C(c2ccco2)C(C#N)=C(SCC(=O)NC(C)(C)C)N1 (centres unmarked),0.536%
20,CCOc1ccccc1N(CC(=O)NC1CCCC1)S(C)(=O)=O,3.74%
21,CCn1c(=O)c2sccc2n2c(CCCC(=O)NCCc3ccc(Cl)cc3)nnc12,-3.01%
22,O=C(Cn1ccc2ccccc2c1=O)NCCC(=O)Nc1cccnc1,5.12%

row,Structure (SMILES),% Inhibition @ 10 uM
1,CCCCNS(=O)(=O)c1ccc(NS(=O)(=O)c2ccc(Br)cc2)cc1,-7.58%
2,CCOc1ccc(NC(=O)CN2C(=O)S/C(=C/c3cc(C)n(-c4ccncc4)c3C)C2=O)cc1,7.62%
3,O=C(NC1CCCCC1)c1ccc(Cl)c(S(=O)(=O)N2CCCCCC2)c1,6.69%
4,N#CC1(c2ccccc2)CCCN1C(=O)c1ccco1 (centres unmarked),-1.02%
5,Cc1cccc(NC(=O)CN(c2cccc(Br)c2)S(C)(=O)=O)c1,-5.92%
6,Cc1ccc(NC(=O)CCNS(=O)(=O)c2ccc3nc(O)ccc3c2)nc1,-5.23%
7,Cc1oc2ncn(C)c(=O)c2c1C(=O)N(C)Cc1ccccc1,-4.17%
8,Cc1cc(=O)n(CC(=O)N2CCOCC2)c2c1c(C)nn2C,-1.56%
9,CC(C)(C)N(Cc1ccccc1)C(=O)c1cccs1,-3.44%
10,O=C1CCCC2=C1C(c1ccc(OCc3ccccc3F)cc1)C1=C(CCCC1=O)O2,1.88%
11,CC(C(=O)N1CCCCC1)n1c2ccccc2c2cnn(C)c(=O)c21 (centres unmarked),-3.79%
12,CC1Cc2ccccc2N1S(=O)(=O)c1ccc(Cl)nc1 (centres unmarked),0.389%
13,COc1ccc(OC)c(CN2CCCC(O)C2)c1 (centres unmarked),-2.56%
14,COc1cccc(-n2nnc3c(=O)n(CC(=O)NCc4ccco4)cnc32)c1,1.24%
15,COc1ccccc1C(=O)Nc1ccc2oc(-c3ccc(Cl)cc3Cl)nc2c1,1.91%
16,COc1ccc(Br)cc1/C=C1/N=C(c2cccc3ccccc23)OC1=O,-5.11%
17,CC1CCCN(Cc2c(C(=O)O)[nH]c(=O)[nH]c2=O)C1 (centres unmarked),1.32%
18,C=C(C)[C@@H]1CC=C(CNc2ccc(OC)c(OC)c2)CC1,-4.14%
19,O=C(Cn1ncn2c(cc3sccc32)c1=O)NC1CCCCCC1,7.91%
20,C#CC(C)(CC)NC(=O)c1cnn2c(C(F)(F)F)cc(-c3cccs3)nc12 (centres unmarked),-0.834%
21,Cc1nn(C)c(C)c1C(=O)NS(=O)(=O)c1ccccc1Cl,-3.58%
22,CC(C)COC(=O)NCC12C=CC(O1)C1C(=O)N(Cc3ccccc3)C(=O)C12 (centres unmarked),-5.47%

row,Structure (SMILES),% Inhibition @ 10 uM
1,O=C(O)CCC(=O)Nc1cccc(NC(=O)c2ccc(Br)cc2)c1,8.27%
2,Oc1ccc2c(Cl)cc(Cl)c(O)c2n1,1.13%
3,O=C(CCCN1C(=O)CSc2ncccc21)NC1CCCCCC1,-2.37%
4,Cn1c2c(c(=O)n(C)c1=O)C(Nc1nc3ccccc3s1)(C(F)(F)F)C(=O)N2 (centres unmarked),-1.52%
5,CCOC(=O)c1sc2ncn3c(-c4cccc(OC)c4)nnc3c2c1C,2.25%
6,CC(C)(C)NC(=O)COc1ccccc1C(=O)Nc1cccc(Cl)c1Cl,-1.61%
7,O=C1CC(NCc2ccco2)C(=O)N1CCc1ccccc1 (centres unmarked),-3.12%
8,CC(C)(C)c1ccc(C(=O)CS(=O)(=O)c2ccccc2)cc1,1.86%
9,CCOC(=O)N1CCN(C(=O)CS(=O)Cc2nc(-c3ccc(Cl)cc3)oc2C)CC1 (centres unmarked),-1.05%
10,CCOc1cc2c(cc1OCC)C(c1c(F)cccc1F)NCC2 (centres unmarked),6.63%
11,CCOc1ccc(NC(=O)c2c(OC)cccc2OC)cc1,-2.32%
12,OC1CCCN(Cc2ccc(Br)s2)C1 (centres unmarked),-1.07%
13,COc1ccc(OC)c2c(C)cc(N3CCCC3)nc12,-11.5%
14,Nc1nc2ccc(-c3nc4ccccc4[nH]3)cc2s1,3.79%
15,CNC(=O)/C(C#N)=C/c1c(Oc2ccc(C(C)(C)C)cc2)nc2ccccn2c1=O,-4%
16,Cc1ccc2nc(Cl)c3cc(C(=O)NCCCN4CCOCC4)sc3c2c1,3.2%
17,Cc1ccc(C2c3c(oc4cc(C)c(C)cc4c3=O)C(=O)N2CCCN2CCOCC2)cc1 (centres unmarked),-2.91%
18,O=C(NC1CCCC1)c1cc(-c2ccc(O)cc2)on1,-1.96%
19,CC1CCc2ccccc2N1C(=O)c1cccs1 (centres unmarked),8.71%
20,Clc1ccc(N2CCN(C3CCN(Cc4ccccc4)CC3)CC2)cc1,1.88%
21,O=c1/c(=C/c2cccc([N+](=O)[O-])c2)sc2nc3ccccc3n12,4.42%
